This passage reports z-score results from PubChem BioAssay AID488969 (Vanderbilt High Throughput Screening Facility, 2010).

Each structure is given as a SMILES string. Whole data set: some 110,000 compounds, median “z-score” near -0.1, cut for the highest 2% near 2. The list shows a part of the results. Calls of active or inactive are those of the source.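 The calls were made as follows: active = z-score in the third read window above 3 or below -3; inactive = the rest.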

The test concerns the target Metabotropic glutamate receptor 8 (Rattus norvegicus) (UniProt P70579). Description: rat mGluR8 modulators via GIRK flux, primary screen, cell-based, thallium flux, HTS (AID 488969). The following applies: HEK293 rat mGluR8, GIRK (G protein-gated inwardly rectifying potassium channel) thallium flux, FluoZin2; at 10 µM; stronger effect = higher value; submaximal glutamate (EC20) added with thallium.
UniProt P70579, sequence (P70579 whole entry, looked up): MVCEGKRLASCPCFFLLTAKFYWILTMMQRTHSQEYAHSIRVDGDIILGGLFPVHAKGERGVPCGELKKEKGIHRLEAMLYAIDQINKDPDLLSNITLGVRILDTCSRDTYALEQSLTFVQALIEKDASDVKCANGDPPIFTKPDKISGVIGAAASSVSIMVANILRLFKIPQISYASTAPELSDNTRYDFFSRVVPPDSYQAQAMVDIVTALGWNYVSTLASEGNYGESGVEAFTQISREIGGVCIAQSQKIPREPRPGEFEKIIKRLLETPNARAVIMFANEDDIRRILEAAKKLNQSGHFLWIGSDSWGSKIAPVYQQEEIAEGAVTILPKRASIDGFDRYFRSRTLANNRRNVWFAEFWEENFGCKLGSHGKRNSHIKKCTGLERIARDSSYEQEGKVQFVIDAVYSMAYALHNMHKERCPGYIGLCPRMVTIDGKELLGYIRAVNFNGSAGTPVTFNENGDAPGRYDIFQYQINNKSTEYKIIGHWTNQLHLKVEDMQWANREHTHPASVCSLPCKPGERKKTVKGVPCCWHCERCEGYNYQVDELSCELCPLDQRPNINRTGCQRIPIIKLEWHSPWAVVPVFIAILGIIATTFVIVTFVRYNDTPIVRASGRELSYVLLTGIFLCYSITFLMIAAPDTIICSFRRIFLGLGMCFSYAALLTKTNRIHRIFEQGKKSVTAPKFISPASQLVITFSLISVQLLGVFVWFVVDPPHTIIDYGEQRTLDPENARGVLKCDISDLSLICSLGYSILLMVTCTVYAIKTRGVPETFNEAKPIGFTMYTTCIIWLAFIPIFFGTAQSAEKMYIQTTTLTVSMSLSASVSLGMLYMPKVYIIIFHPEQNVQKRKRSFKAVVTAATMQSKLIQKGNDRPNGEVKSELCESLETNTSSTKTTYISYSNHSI
On to `Cc1ccc(-n2nc3cc(C)c(NC(=O)c4cccnc4)cc3n2)cc1`, for which the z-score is -0.169. The same measure for `COc1ccc2c(c1)c(=O)oc1cc(OCC(=O)NC3CCCCC3)ccc12`: 0.0339; for `CCCS(=O)(=O)C(=C(Nc1ccc(OC)cc1)Nc1ccc(OC)cc1)S(=O)(=O)CCC`: -2.94; for `CCn1nc(C(=O)N2CCN(Cc3ccc4c(c3)OCO4)CC2)c2ccccc2c1=O`: -0.474. `COC(=O)c1ccc(NC(=O)CN(c2ccc(OC)cc2)S(C)(=O)=O)cc1` displayed a z-score of 0.267. The same measure for `O=C(c1ccc2c(c1)OCO2)n1nnc2ccccc21`: -0.248; for `CCc1nnc(NC(=O)CSc2nnc(-c3ccccc3O)n2CC)s1`: -0.195; for `C=CCc1cc(OC)ccc1OCCON1C(=O)CCC1=O`: 0.46. Turning to `O=C(Cc1ccccc1)NNC1CC(=O)N(c2ccc(Br)cc2)C1=O` (stereo not drawn), the z-score is -0.285. The same measure for `COc1cccc2c3c(c(=O)[nH]c12)CCC(C)(C)O3`: -0.72; for `CC(C)c1ccc(-c2nc(N3CCOCC3)[nH]c(=O)c2C#N)cc1`: -1.29; for `N/C(Cc1cccs1)=N\OC(=O)COc1ccc(Br)cc1`: -1.16. The same measure for `O=C(CCCN1C(=O)/C(=C\c2ccco2)SC1=S)Nc1ccc2ccccc2c1`: -0.0955; for `COc1ccc(-n2nnnc2SCC(=O)c2ccc(OC)c(OC)c2)cc1`: -0.221. `O=C(O)CC(NC(=O)C(c1ccccc1)c1ccccc1)c1ccco1` (stereo not drawn) displayed a z-score of -0.325.

For `COc1nc(N2CCOCC2)nc(C)c1[N+](=O)[O-]`, the z-score was -0.535. Then `COc1ccc(-c2nnn(CC(=O)N(Cc3ccco3)C(C(=O)NCC3CCCO3)c3ccco3)n2)cc1` (stereo not drawn), with 0.609. The same measure for `O=C(Cn1c(=O)n(Cc2ccco2)c(=O)c2ccccc21)NCC1CCCO1` (stereo not drawn): -0.425. Compound `COCCn1c(=N)c(C(=O)NCCc2ccccc2)cc2c(=O)n3cccc(C)c3nc21` showed a z-score of 0.228. Take `COc1cccc(CN2C(=O)N(C(C)C)C(N(O)C(=O)NC(C)C)C2(C)C)c1OC` (stereo not drawn): the z-score was determined as 0.122. Then `Cc1ccc(NP(=O)(c2ccc(N(C)C)cc2NC(=O)c2cccs2)N2CCOCC2)cc1` (stereo not drawn), with 0.911; and `CCCOC(=O)CC1C(=O)NCCN1Cc1ccccc1C` (stereo not drawn), with -0.484. Then `O=C(Nc1nc(-c2ccncc2)cs1)C1COc2ccccc2O1` (stereo not drawn), with -0.377; and `CCOC(=O)CSc1nnc(CNC(=O)c2ccccc2OC)n1-c1ccc(OC)cc1`, with -0.559; and `CCCC(NC(=O)c1ccccc1)c1nc2ccccc2n1Cc1ccc(C(=O)OC)o1` (stereo not drawn), with 0.0213. Consider `CCN1CCN(C(=O)CN(C)S(=O)(=O)c2ccc(OC)c(C)c2)CC1`, for which the z-score was found to be 0.273.

`COc1ccc(NC(C)=O)cc1NC(=O)CCn1c(=O)sc2ccccc21`: the z-score came to 0.00383. In the case of `CNC(=S)N1N=C(c2ccccc2)CC1c1ccc(Br)cc1` (stereo not drawn), the z-score was -0.103. Then `CC(C)OC(=O)CC(=O)CSc1nc2c(cc1C#N)CCCCCC2`, with -0.0424. Then `O=C(NCC1CCCO1)C1CCC(=O)N1Cc1ccccc1Cl` (stereo not drawn), with -0.388; and `O=C(COC(=O)/C=C/c1ccccc1[N+](=O)[O-])Nc1ccc(OCc2ccccc2)cc1`, with -0.237. The same measure for `Cc1onc(-c2c(Cl)cccc2Cl)c1C(=O)N1CCc2ccccc21`: -0.434; for `COc1ccc(-c2cc3ccc(OCc4nn[nH]n4)cc3oc2=O)cc1OC`: 0.457. Compound `CCOC(=O)c1nc(C)n(-c2cc(Cl)ccc2Cl)n1` gave a z-score of -0.12. The same measure for `CCCNS(=O)(=O)c1ccc(OCC(=O)NCCC2=CCCCC2)cc1`: -0.106. Then `O=C(CN1CCN(c2ccccn2)CC1)N1CCc2ccccc21`, with -0.219. Then `O=S(=O)(NCCc1csc(-c2cccnc2)n1)c1ccc(Cl)s1`, with 2.22; and `CCc1ccc(N(CC(=O)Nc2nc3ccc(C)cc3s2)S(=O)(=O)c2c(C)noc2C)cc1`, with -0.0777. For `O=C(CN1C(=O)C2C3C=CC(C3)C2C1=O)N1CC(=O)N(CCc2ccccc2)C(=O)C1` (stereo not drawn), the z-score amounted to 0.00863. The same measure for `O=C(N/N=C/c1ccc[nH]1)c1ccc([N+](=O)[O-])cc1`: -0.175; for `O=C1C=C(Nc2ccc(Cl)cc2)CC(c2ccc(Cl)cc2)C1` (stereo not drawn): -0.0986. The same measure for `O=C(Nc1ccccc1C(=O)NCc1ccco1)c1ccco1`: -0.945. Take `CCCC(=O)Nc1ccc(Cl)c(NC(=S)NC(=O)c2ccco2)c1`: the z-score was 0.122. The same measure for `Cc1cc(C)n(-c2ccc(C(=O)OCC(=O)N(CC(C)C)C3CCS(=O)(=O)C3)cc2)n1` (stereo not drawn): -0.486; for `Cc1ccc(/C=N/N2CCN(C3c4ccccc4-c4ccccc43)CC2)s1`: -0.266. The same measure for `CCOc1ccc2nc(SCC(=O)c3ccc(Cl)s3)sc2c1`: 1.12; for `Cc1ccc(N(CC(=O)NN=C2CCN(C)CC2)S(=O)(=O)c2ccccc2)c(C)c1`: -0.218; for `CCOC(=O)Cn1c(=N)n(CCOc2ccc(OC)cc2)c2ccccc21`: 2.74. Then `Cn1c(=O)[nH]c(=O)c2c1nc(Br)n2CCSc1nnnn1-c1ccccc1`, with -0.161; and `Cn1c(=O)c2c(nc(Sc3ncccn3)n2Cc2ccc(Cl)cc2)n(C)c1=O`, with 0.0166; and `COCCN1CC(O)=C(c2nc3ccccc3c(=O)[nH]2)C1=N`, with -0.0275. Consider `COCCCNS(=O)(=O)c1ccc(Oc2ncc(C(F)(F)F)cc2Cl)cc1`, for which the z-score is -0.289. On to `Cc1cs/c(=N\N=C\c2cccc([N+](=O)[O-])c2)n1Cc1ccco1`, for which the z-score is active: 5.13. The compound `O=S(=O)(c1ccc2c(c1)OCCO2)N1CCC(c2nc3ccccc3s2)CC1` gave a z-score of -0.296. Regarding `CCOC(=O)c1[nH]c(C)c(C(=O)OC(C)C(=O)Nc2ncc(Cl)cc2Cl)c1C` (stereo not drawn), the z-score was -0.375. Then `Cc1ccc(N(CC(=O)N2CCOCC2)S(=O)(=O)c2ccccc2)cc1`, with 0.464; and `COc1cc(/C=N/n2cnnc2)ccc1OC(=O)c1cccnc1`, with -0.133.

In turn, `Cc1nc(SCc2ccccc2)c([N+](=O)[O-])[nH]1` showed a z-score of 0.317.

`COc1ccc(NC(=O)CSc2nc3ccccc3cc2Cc2ccccc2)cc1`: the z-score is -0.172.

Regarding `C=CCn1c(=O)c2c3c(sc2n2c(Nc4ccc(OC)cc4)nnc12)CCCC3`, the z-score was -1.06. Then `CCCC(c1nnnn1Cc1ccccc1)N1CCN(c2ccccc2OC)CC1` (stereo not drawn), with 0.685; and `CC1=CCC(C(=O)N/N=C/c2cccs2)C(c2ccc(F)cc2)C1` (stereo not drawn), with 0.188. For the compound `O=C(CC12CC3CC(CC(C3)C1)C2)NCC(=O)N1CCc2ccccc2C1`, the z-score amounted to 0.431. Turning to `Cc1ccccc1C(=O)O/N=C(\c1ccccc1)c1ccccn1`, the z-score was -0.477. Regarding `O=C(CN1CCC(n2nnc3cc(F)ccc32)CC1)Nc1ccccc1N1CCOCC1`, the z-score is -0.361.

For the compound `Cc1ccc(-c2nnn(CC(=O)NC3CCCc4ccccc43)n2)cc1` (stereo not drawn), the z-score stood at 0.26.

`Nc1nc(CSC(=S)N2CCOCC2)nc(Nc2ccccc2)n1` came in with a z-score of 2.25. In turn, `COc1ccc(/C(N)=N/OC(=O)c2ccc(C)c([N+](=O)[O-])c2)cc1OC` gave a z-score of -0.247. Then `CC(=O)c1c(C)[nH]c(C(=O)OCC(=O)N2c3ccccc3NC(=O)C2(C)C)c1C`, with -0.348.

In turn, `O=C(Nc1cc(C(F)(F)F)ccc1N1CCOCC1)c1ccc(Br)o1` gave a z-score of 0.207. Then `CCCCNC(=O)C1C2C=CC3(CN(Cc4ccc(C)cc4)C(=O)C13)O2` (stereo not drawn), with 0.167; and `O=C(N1CCOCC1)C1(c2ccccc2)CCCCC1`, with 0.0973. As for `S=C1NCCOCCOCCOCCNC(=S)NCCOCCOCCOCCN1`, the z-score stood at 1.93. The same measure for `O=C(O)CCc1ccc(-c2ccc(F)cc2)n1Cc1ccco1`: 0.536.

The compound `COc1cccc(/C=N/Nc2nn3cnnc3c3ccccc23)c1` displayed a z-score of -0.724. Turning to `O=C(/C=C/c1ccco1)Nc1ccccn1`, the z-score is -0.373.

In turn, `Cc1cc2ccccc2n1CCNC(=O)c1cccs1` registered a z-score of 0.56.

As to `CCCc1cc(=O)[nH]c(SCC(=O)N2CCN(S(=O)(=O)c3ccc4ccccc4c3)CC2)n1`, the z-score was -0.144.

In the case of `Cc1cccc(C)c1N1CCN(S(=O)(=O)c2ccc(F)cc2)CC1`, the z-score was -0.473.

`CC(=O)Oc1ccccc1C1=NN(C(=O)/C=C/c2ccccc2)C(c2ccccc2)C1` (stereo not drawn) displayed a z-score of 0.332.

For `O=C(NCc1ccccc1)c1ccc(S(=O)(=O)C(F)F)cc1`, the z-score is -0.241. Then `N=c1n(CCO)c2ccccc2n1CCOc1ccccc1`, with -0.208; and `Cc1cccc(-c2noc(CCCC(=O)N3CCOCC3)n2)c1`, with -0.139; and `Cc1cccc(NC(=O)COc2ccc(Br)cc2)n1`, with -0.0989. The same measure for `O=S(=O)(c1ccc(-c2nc3ccccc3s2)cc1)N1CCCC1`: -0.109; for `Cc1ccc(Oc2cc([N+](=O)[O-])cc3c2C(=O)Nc2ccccc2O3)cc1`: -0.0885; for `Cc1ccc2nc(N/N=C\c3ccc([N+](=O)[O-])o3)nc(-c3ccccc3)c2c1`: -1.26. Then `COc1ccc(CNC(=O)C2CCN(C(=O)N3CCOc4ccc(C)cc43)CC2)cc1`, with -0.187. The compound `CCc1cc2c(=O)[nH]c(Cc3ccc(Cl)cc3)nc2s1` had a z-score of -0.162. Consider `O=C(Cn1nc(-c2ccc(F)cc2)ccc1=O)Nc1ccc(C(=O)NC2CC2)cc1`, for which the z-score was -0.149.

As to `CN1CCN(CCCNC(=O)c2cn(C3CCCCC3)c(=O)c3c2c2ccccc2n3C)CC1`, the z-score is -0.464. Then `O=C1CCCC/C1=C/Nc1ccc(C(=O)O)cc1`, with 0.258. Then `Cc1cc2ccccc2n1CCNC(=O)C1CCCCC1`, with -0.273.

`CCOC(=O)/C(C#N)=C/c1ccc(N2CCN(Cc3ccccc3)CC2)cc1` came in with a z-score of -0.69.

As to `CCOc1cc(S(=O)(=O)NCc2cccs2)ccc1Cl`, the z-score stood at 0.0948. The same measure for `N#C/C(=C\Nc1ccccc1O)c1nc2ccccc2o1`: -0.706; for `COc1ccc(NC(=O)CC(C)C)c(OC)c1`: 0.164; for `CCCCC(=O)Nc1cccc(NC(=O)c2ccccc2Br)c1`: -0.164. Then `Cc1cc(NC(=O)Cc2c(F)cccc2Cl)no1`, with -0.0951. The same measure for `CCN1CCCC1CNC(=O)c1cc2c(-c3ccc(Cl)cc3)nn(C)c2s1` (stereo not drawn): 0.368; for `NC(N)=N/N=C/c1cc([N+](=O)[O-])ccc1O`: -0.192; for `Cc1ccc(S(=O)(=O)Nc2ccccc2CNc2ccccn2)cc1`: -0.344. As for `Cc1c(NC2=CC(=O)CC(C)(C)C2)ccc([N+](=O)[O-])c1C`, the z-score was -0.155. The same measure for `CCOC(=O)C1CCCN(C(=O)C2CCCN(S(=O)(=O)c3ccc4c(c3)oc(=O)n4C)C2)C1` (stereo not drawn): -0.171.

`CCn1c(NC(=O)c2ccccc2)c(-c2cccs2)c(=O)c2ccccc21` had a z-score of -0.172.

On to `CC1Cc2ccccc2N1C(=O)CSc1ncccc1C(=O)O` (stereo not drawn), for which the z-score was -0.775. The same measure for `O=C(c1ccc(-n2cccc2)cc1)N1CCOCC1`: -0.0309; for `COc1ccc(C(=O)Nn2cc3c(c2-c2ccccc2)c(=O)n(C)c(=O)n3C)cc1`: -0.234.
